# Test results taken from the supplement of paper PMC8285479.
# Where “and” joins values, the source holds several entries; their conditions need not be identical. Equal values may be shown once. Where a name gives a salt, the structure may show the parent alone. ± gives the standard deviation of the averaged measurements. Over roughly 1,900 compounds, “normalised cell viability (NPI; 0 = phenylarsine oxide control, 1 = DMSO control)” has its median near 1; the lowest 2% begin near 0.039. The list shows a part of the results.
# System: NCI-H1944
# Test: normalised cell viability (NPI; 0 = phenylarsine oxide control, 1 = DMSO control) (fraction of DMSO control); NCI-H1944 is a non-small cell lung cancer line; higher = more viable cells (less compound toxicity)
# Conditions: 6 days
# [1] = glucocorticoid arm: hydrocortisone 2.75 uM co-treatment, compound 1 µM
# [2] = glucocorticoid arm: hydrocortisone 2.75 uM co-treatment, compound 5 µM
# [3] = glucocorticoid arm: hydrocortisone 2.75 uM pre-treated 2 days and continued, compound 1 µM
# [4] = glucocorticoid arm: hydrocortisone 2.75 uM pre-treated 2 days and continued, compound 5 µM
# [5] = glucocorticoid arm: vehicle, compound 1 µM
# [6] = glucocorticoid arm: vehicle, compound 5 µM
# 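Also: CTB read-out in 384-well plates, mean of triplicate wells, normalised per plate against 1 µM phenylarsine oxide and 0.1% DMSO, compounds added 24 h after seeding.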
Structure (SMILES),normalised cell viability [1],normalised cell viability [2],normalised cell viability [3],normalised cell viability [4],normalised cell viability [5],normalised cell viability [6]
COc1ccc(-c2nc(N3CCOCC3)c3sc(CN(C)c4ncc(C(=O)NO)cn4)cc3n2)cn1,0.00442 ± 0.0038,0.00164 ± 0.00085,0.0384 ± 0.044,0.00149 ± 0.001,0.00371 ± 0.0034,0.000104 ± 0.00053
Cn1ncnc1[C@H]1c2n[nH]c(=O)c3cc(F)cc(c23)N[C@@H]1c1ccc(F)cc1,0.996 ± 0.012,0.934 ± 0.028,1.01 ± 0.017,1.05 ± 0.015,0.436 ± 0.0095,0.28 ± 0.016
NCCCCCC(=O)O [6-Aminohexanoic acid],0.9763 ± 0.0095,0.972 ± 0.022,1 ± 0.011,0.971 ± 0.041,0.99 ± 0.019,0.9787 ± 0.0067
c1ccc2c(CCNc3ccc(Nc4ccncc4)cc3)c[nH]c2c1,1.023 ± 0.0058,0.547 ± 0.02,1.03 ± 0.01,0.971 ± 0.038,0.836 ± 0.042,0.124 ± 0.0029
COc1ccc2c(Oc3ccc(NC(=O)c4c(C)n(CC(C)(C)O)n(-c5ccccc5)c4=O)nc3)ccnc2c1,0.97 ± 0.012,0.9527 ± 0.0071,0.972 ± 0.02,0.946 ± 0.014,0.9923 ± 0.008,0.983 ± 0.018
Nc1nc2c(ncn2COC(CO)CO)c(=O)[nH]1 [Ganciclovir],0.998 ± 0.013,0.982 ± 0.015,1.003 ± 0.0058,0.983 ± 0.026,0.994 ± 0.0072,1.002 ± 0.0076
C=CC(=O)Nc1cccc(Sc2nc(Nc3ccc(N4CCN(C)CC4)cc3)ncc2Cl)c1,0.859 ± 0.026,0.658 ± 0.041,0.895 ± 0.021,0.7497 ± 0.0025,0.8727 ± 0.0049,0.508 ± 0.082
CC(C)NC[C@@H](C(=O)N1CCN(c2ncnc3c2[C@H](C)C[C@H]3O)CC1)c1ccc(Cl)cc1,0.804 ± 0.055,0.54 ± 0.034,0.822 ± 0.014,0.624 ± 0.024,0.9453 ± 0.0075,0.715 ± 0.04
O=C1c2c(O)cc(O)cc2O[C@H](c2ccc(O)c(O)c2)[C@H]1O (racemic) [(±)-Taxifolin],1.01 ± 0.013,0.995 ± 0.0078,1.02 ± 0.035,1.01 ± 0.012,1.017 ± 0.0058,1.017 ± 0.0058
Cc1ccc([C@@H]2O[C@H](CO)[C@@H](O)[C@H](O)[C@H]2O)cc1Cc1ccc(-c2ccc(F)cc2)s1 [Canagliflozin],1 ± 0.014,1.02 ± 0.01,1.02 ± 0.026,1.01 ± 0.018,1.003 ± 0.0058,0.9973 ± 0.0025
CN1CCN(CC(=O)N2c3ccccc3C(=O)Nc3cccnc32)CC1 [Pirenzepine dihydrochloride],0.985 ± 0.011,1 ± 0.024,1.01 ± 0.02,0.995 ± 0.007,0.983 ± 0.008,0.9803 ± 0.0065
C=CC(=O)Nc1cccc(Oc2nc(Nc3ccc(N4CCN(C)CC4)cc3)ncc2Cl)c1,0.696 ± 0.02,0.41 ± 0.0061,0.737 ± 0.0062,0.521 ± 0.0095,0.557 ± 0.015,0.118 ± 0.024
NC[C@@H]1O[C@H](C23CC4CC(CC(C4)C2)C3)Cc2c1ccc(O)c2O,1.01 ± 0.012,0.0562 ± 0.02,1.01 ± 0.011,0.996 ± 0.077,1.01 ± 0.011,0.0119 ± 0.0027
COc1cc2ncnc(Nc3cccc(Br)c3)c2cc1OC,0.8763 ± 0.0032,0.757 ± 0.017,0.887 ± 0.046,0.802 ± 0.027,0.872 ± 0.031,0.774 ± 0.054
CN(C)CCC(c1ccc(Br)cc1)c1ccccn1 (stereo not drawn) [Brompheniramine hydrogen maleate],1.03 ± 0.02,1.01 ± 0.027,1.02 ± 0.018,1.01 ± 0.022,1.01,0.992 ± 0.01
COc1ccc(Cl)cc1NC(=O)Nc1cc(C)nc2ccccc12,1.01 and 1.02,,,,1 and 1.01,
"COc1ccccc1N1CCN(CCCNc2c(C)c(=O)n(C)c(=O)n2C)CC1 [Urapidil, 5-Methyl-]",1.01 ± 0.012,1.01 ± 0.01,1.01 ± 0.026,1 ± 0.028,1.01,1.01
O=C(O)/C=C/C(O)c1ccc(Cl)cc1 (stereo not drawn) [NCS-356 sodium salt hydrate],1.007 ± 0.0058,1.02 ± 0.01,1.01 ± 0.01,1.04 ± 0.083,1.003 ± 0.0058,1.01 ± 0.018
C[C@]12CCC(=O)C=C1CC[C@@H]1[C@@H]2CC[C@@]2(C)[C@H]1CC[C@]2(O)C(=O)CO [Cortexolone],1.01 ± 0.015,1 ± 0.022,1.01 ± 0.025,0.99 ± 0.018,1.002 ± 0.0068,0.985 ± 0.013
CCC1(c2ccccc2)C(=O)NCNC1=O [Primidone],1.002 ± 0.0068,1.013 ± 0.0058,1.01 ± 0.033,0.999 ± 0.019,1.002 ± 0.0076,0.989 ± 0.013
COc1cc(Nc2c(C#N)cnc3cc(OCCCN4CCN(C)CC4)c(OC)cc23)c(Cl)cc1Cl [Bosutinib],0.9847 ± 0.0085,0.8487 ± 0.0055,1.007 ± 0.0058,0.958 ± 0.019,0.897 ± 0.03,0.644 ± 0.039
COc1cc(Nc2c(C#N)cnc3cc(OCCCN4CCN(C)CC4)c(OC)cc23)c(Cl)cc1Cl [Bosutinib (SKI-606)],0.898 ± 0.046,0.848 ± 0.015,0.969 ± 0.015,0.942 ± 0.072,0.86 ± 0.016,0.336 ± 0.027
C1CCC(N=C(NC23CC4CC(CC(C4)C2)C3)N2CCOCC2)CC1,0.983 ± 0.012,0.926 ± 0.018,0.997 ± 0.012,0.9845 ± 0.0064,0.986 ± 0.013,0.984 ± 0.001
NC(=O)C1CCCc2c1[nH]c1ccc(Cl)cc21 (stereo not drawn),0.999 ± 0.019,1.01 ± 0.026,1.006 ± 0.0075,0.988 ± 0.013,1.01 ± 0.01,1.02 ± 0.011
NC(=O)C1CCCc2c1[nH]c1ccc(Cl)cc21 (stereo not drawn) [EX 527 (Selisistat)],0.973 ± 0.0079,0.996 ± 0.0027,0.967 ± 0.016,0.992 ± 0.032,0.9907 ± 0.0086,0.9903 ± 0.0055
CO/N=C(\C(=O)N[C@@H]1C(=O)N2C(C(=O)O)=C(COC(C)=O)CS[C@H]12)c1csc(N)n1 [Cefotaxime sodium salt],0.999 ± 0.036,1.01 ± 0.02,0.989 ± 0.021,1 ± 0.025,1.002 ± 0.0072,1.007 ± 0.0058
Clc1ccc(C2(c3ccc(-c4cn[nH]c4)cc3)CCNCC2)cc1,0.968 ± 0.012,0.9977 ± 0.0021,0.975 ± 0.011,1.006 ± 0.0075,0.9947 ± 0.0051,0.939 ± 0.015
